{"source": "paper PMC4336329", "about": "(PLoS ONE, 2015)", "note": "The campaign covered roughly 310,000 compounds. About 14,000 (4.5%) showed an effect of 50% or more. The effect is printed as a negative number. The list shows a part of the results.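 Further: peak tail current of the secondary pulse compared with the same well before compound.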"}
{"molecular_target": "human ether-à-go-go-related gene (hERG) potassium channel (human, UniProt Q12809)", "sequence (Q12809 whole entry, looked up)": "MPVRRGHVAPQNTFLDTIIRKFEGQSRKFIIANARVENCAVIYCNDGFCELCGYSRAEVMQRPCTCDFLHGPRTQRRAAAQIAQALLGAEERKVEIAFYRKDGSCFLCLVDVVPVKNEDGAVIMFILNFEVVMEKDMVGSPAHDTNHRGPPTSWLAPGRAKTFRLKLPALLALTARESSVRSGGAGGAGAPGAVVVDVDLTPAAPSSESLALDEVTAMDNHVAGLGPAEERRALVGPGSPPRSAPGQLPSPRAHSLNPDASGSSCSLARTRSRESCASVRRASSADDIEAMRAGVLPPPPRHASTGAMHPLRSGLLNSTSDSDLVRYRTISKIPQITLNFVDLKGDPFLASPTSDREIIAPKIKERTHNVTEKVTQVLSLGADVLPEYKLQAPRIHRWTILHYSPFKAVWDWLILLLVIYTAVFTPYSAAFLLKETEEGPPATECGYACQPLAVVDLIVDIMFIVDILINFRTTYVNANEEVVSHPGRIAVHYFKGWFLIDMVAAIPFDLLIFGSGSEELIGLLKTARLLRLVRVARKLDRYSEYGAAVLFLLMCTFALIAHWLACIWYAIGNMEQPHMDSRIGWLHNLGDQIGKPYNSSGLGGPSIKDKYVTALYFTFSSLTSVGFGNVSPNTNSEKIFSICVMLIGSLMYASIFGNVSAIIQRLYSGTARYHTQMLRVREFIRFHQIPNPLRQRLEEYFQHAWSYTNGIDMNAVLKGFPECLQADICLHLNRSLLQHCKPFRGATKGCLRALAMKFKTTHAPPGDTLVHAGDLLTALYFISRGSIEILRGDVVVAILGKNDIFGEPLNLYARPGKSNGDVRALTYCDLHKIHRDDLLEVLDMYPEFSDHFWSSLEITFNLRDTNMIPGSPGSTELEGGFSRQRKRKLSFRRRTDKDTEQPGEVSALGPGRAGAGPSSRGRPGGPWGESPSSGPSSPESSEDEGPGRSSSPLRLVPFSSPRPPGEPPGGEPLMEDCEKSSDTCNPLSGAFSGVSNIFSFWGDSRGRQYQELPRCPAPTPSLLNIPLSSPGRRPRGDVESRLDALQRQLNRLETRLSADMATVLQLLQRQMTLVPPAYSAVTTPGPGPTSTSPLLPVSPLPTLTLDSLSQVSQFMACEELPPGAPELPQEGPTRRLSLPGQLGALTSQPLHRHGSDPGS", "assay": "primary screen, population patch clamp on CHO cells stably expressing hERG", "units": {"hERG current change (%, negative = inhibition) at 10uM": "%"}}
{"compound": "COC(=O)C1CCN(C(=O)CSc2nnc(-c3ccncc3)o2)CC1", "hERG current change (%, negative = inhibition) at 10uM": -21.1}
{"compound": "O=C1CSC(c2ccccc2)N1c1nc(-c2ccc(Cl)cc2Cl)cs1", "note": "(stereo not drawn)", "hERG current change (%, negative = inhibition) at 10uM": -1.95}
{"compound": "COc1ccc(C/C(N)=N/OC(=O)Cc2ccccc2)cc1", "hERG current change (%, negative = inhibition) at 10uM": -7.03}
{"compound": "O=C(NCc1cccnc1)c1c(F)c(F)c(F)c(F)c1F", "hERG current change (%, negative = inhibition) at 10uM": -1.74}
{"compound": "OCC1OC(n2cnc3c(NC4CCCCC4)ncnc32)C(O)C1O", "note": "(stereo not drawn)", "hERG current change (%, negative = inhibition) at 10uM": 9.57}
{"compound": "CC(=O)/C(=N/Nc1cccc(Cl)c1)N1CCOCC1.Cl", "hERG current change (%, negative = inhibition) at 10uM": 0.998}
{"compound": "COc1ccc(N2CCN(C(=O)NCc3ccc(C)cc3)CC2)cc1", "hERG current change (%, negative = inhibition) at 10uM": 13.4}
{"compound": "CCC[C@@H](NS(=O)(=O)c1ccc(C)cc1)C(=O)Oc1ccc2c3c(c(=O)oc2c1)CCC3", "hERG current change (%, negative = inhibition) at 10uM": 3.75}
{"compound": "CN(C)c1ccc(CN(Cc2ccco2)C(=O)c2ccco2)cc1", "hERG current change (%, negative = inhibition) at 10uM": -30.1}
{"compound": "COc1cc(C)c(NC(c2ccccc2)c2ccccc2)cc1OC", "hERG current change (%, negative = inhibition) at 10uM": 10.6}
{"compound": "O=C(CSc1ccc(Cl)cc1)Nc1ccccc1N1CCN(C(=O)c2ccc(Cl)cc2)CC1", "hERG current change (%, negative = inhibition) at 10uM": -10.7}
{"compound": "Cc1cccc(C)c1NC(=O)CN(C)C(=O)C1CC1C", "note": "(stereo not drawn)", "hERG current change (%, negative = inhibition) at 10uM": -0.74}
{"compound": "NC(=O)C1CCN(C2CC(=O)N(Cc3cccs3)C2=O)CC1", "note": "(stereo not drawn)", "hERG current change (%, negative = inhibition) at 10uM": 0.931}
{"compound": "NC(=O)c1ccc(F)cc1", "hERG current change (%, negative = inhibition) at 10uM": 17.7}
{"compound": "CCOc1ccc(S(=O)(=O)NCc2ccc3c(c2)OCO3)cc1", "hERG current change (%, negative = inhibition) at 10uM": 8.6}
{"compound": "CCN(CC)CCNCC1C(=O)O[C@@H]2C[C@@]3(C)CCC[C@H](C)C3=C[C@H]12", "note": "(stereo partly drawn)", "hERG current change (%, negative = inhibition) at 10uM": -13.4}
{"compound": "CCOc1cc(C(=O)CSc2nnc(CNc3ccc(Cl)cc3)o2)ccc1NC(=O)CC", "hERG current change (%, negative = inhibition) at 10uM": -1.83}
{"compound": "C[C@@H]1C[C@H]2[C@@H]3CCC4=CC(=O)C=C[C@]4(C)[C@@]3(F)[C@@H](O)C[C@]2(C)[C@@]1(O)C(=O)CO", "hERG current change (%, negative = inhibition) at 10uM": 10.4}
{"compound": "CCOC(=O)c1c(NC(=O)CSc2ncn[nH]2)sc(C(C)=O)c1C", "hERG current change (%, negative = inhibition) at 10uM": -12.7}
{"compound": "Cc1ccc(NC(=O)CCn2nc(C)cc2C)cc1", "hERG current change (%, negative = inhibition) at 10uM": 11.4}
{"compound": "O=C1c2ccncc2C(=O)N1c1cccc(Cl)c1", "hERG current change (%, negative = inhibition) at 10uM": 13.4}
{"compound": "O=C(Cc1ccc(Br)cc1)Nc1cccc(-c2cn3c(n2)SCC3)c1", "hERG current change (%, negative = inhibition) at 10uM": 4.29}
{"compound": "COc1cc(O)c(C(CCN2CCN(c3ccccc3)CC2)c2cc(OC)c(OC)c(OC)c2)c(OC)c1", "note": "(stereo not drawn)", "hERG current change (%, negative = inhibition) at 10uM": -29.5}
{"compound": "Cc1nc2nc(-c3cccnc3)nn2c(C)c1Cl", "hERG current change (%, negative = inhibition) at 10uM": -11.1}
{"compound": "CNC(=O)Nc1ccc2nc(C)sc2c1", "hERG current change (%, negative = inhibition) at 10uM": 14.2}
{"compound": "COC(=O)c1ccc(C(=O)OC)c(NC(=O)CN(c2ccccc2)S(=O)(=O)N(C)C)c1", "hERG current change (%, negative = inhibition) at 10uM": -6.89}
{"compound": "COc1ccc(NC(=O)Cc2c(O)c3ccccc3[nH]c2=O)cc1", "hERG current change (%, negative = inhibition) at 10uM": -4.6}
{"compound": "CCCCn1c(N)c(N(Cc2ccccc2OC)C(=O)C(C)Oc2ccc(F)cc2)c(=O)[nH]c1=O", "note": "(stereo not drawn)", "hERG current change (%, negative = inhibition) at 10uM": 6.13}
{"compound": "C=CCC(CC=C)(NC(=O)c1ccccc1C(=O)O)c1ccccc1", "hERG current change (%, negative = inhibition) at 10uM": -1.12}
{"compound": "CCOC(=O)N1CCN(CCC(=O)Nc2ccc(Br)c(C)c2)CC1.Cl", "hERG current change (%, negative = inhibition) at 10uM": -35.7}
{"compound": "CN(C)C(=O)CCC(=O)N(C)CC1CCCN(CCc2ccc(F)cc2)C1", "note": "(stereo not drawn)", "hERG current change (%, negative = inhibition) at 10uM": -38.1}
{"compound": "OCC1(Cc2ccccc2)CCN(Cc2ccc(-c3ccco3)cc2)CC1", "hERG current change (%, negative = inhibition) at 10uM": -66.6}
{"compound": "CCOC(=O)C(CC)Sc1ncnc2nc[nH]c12", "note": "(stereo not drawn)", "hERG current change (%, negative = inhibition) at 10uM": -12.4}
{"compound": "COc1ccc(S(=O)(=O)N(CC(=O)NCc2ccco2)c2ccccc2)cc1OC", "hERG current change (%, negative = inhibition) at 10uM": -4.97}
{"compound": "Cc1nnc(SCC(=O)N2CCN(Cc3ccccc3)CC2)s1", "hERG current change (%, negative = inhibition) at 10uM": -2.28}
{"compound": "NC(=O)N1CCN(C(=O)c2ccco2)CC1", "hERG current change (%, negative = inhibition) at 10uM": 6.37}
{"compound": "CN(C)c1nc(C(=O)O)nc(N2CCOCC2)n1", "hERG current change (%, negative = inhibition) at 10uM": 10.7}
{"compound": "CC(=O)c1ccc(S(=O)(=O)Nc2cccc(-c3cn4c(n3)SCC4)c2)cc1", "hERG current change (%, negative = inhibition) at 10uM": 10.9}
{"compound": "CCCCCC(=O)NC(=S)Nc1ccccc1C(=O)OC", "hERG current change (%, negative = inhibition) at 10uM": -3.32}
{"compound": "CC1CCCN(C(=O)COC(=O)Cc2c[nH]c3ccccc23)C1", "note": "(stereo not drawn)", "hERG current change (%, negative = inhibition) at 10uM": 1.54}
{"compound": "CC(C)CCn1c(SCC(N)=O)nc2c1c(=O)n(C)c(=O)n2C", "hERG current change (%, negative = inhibition) at 10uM": 6.57}
{"compound": "CCN1CCc2c(sc(NC(=S)NC(=O)c3ccco3)c2C(N)=O)C1", "hERG current change (%, negative = inhibition) at 10uM": 2.95}
{"compound": "CCC1=Nc2cc(C(=O)NCC3CCCO3)ccc2Sc2ccc(Cl)cc21", "note": "(stereo not drawn)", "hERG current change (%, negative = inhibition) at 10uM": -15.5}
{"compound": "CCOc1ccc(Oc2ccc(Cl)cc2NC(=O)CCNC(C)=O)cc1", "hERG current change (%, negative = inhibition) at 10uM": 12.7}
{"compound": "Cc1cccc(S(=O)(=O)Nc2nc3ccccc3nc2NCc2ccc3c(c2)OCO3)c1", "hERG current change (%, negative = inhibition) at 10uM": 24.6}
{"compound": "CN(C)c1cccc2c(S(=O)(=O)Nc3ccccn3)cccc12", "hERG current change (%, negative = inhibition) at 10uM": 6.16}
{"compound": "O=C(CSc1nnnn1C1CCCCC1)NCCc1ccccc1", "hERG current change (%, negative = inhibition) at 10uM": -16.2}
{"compound": "CCCOc1ccccc1C(=O)N(Cc1cccc(Br)c1)C1CCS(=O)(=O)C1", "note": "(stereo not drawn)", "hERG current change (%, negative = inhibition) at 10uM": -35.4}
{"compound": "CC(C(=O)NCC1CCCO1)N(C(=O)c1snc(C(N)=O)c1N)c1cccc(F)c1", "note": "(stereo not drawn)", "hERG current change (%, negative = inhibition) at 10uM": -2.06}
{"compound": "COc1ccc(CNC(=O)C2CCN(S(=O)(=O)N3CCCCC3)CC2)c(OC)c1", "hERG current change (%, negative = inhibition) at 10uM": 4.43}
{"compound": "Cc1ccc(S(=O)(=O)N2C(=O)CCC2C(=O)O/N=C(\\N)c2cccc([N+](=O)[O-])c2)cc1", "note": "(stereo not drawn)", "hERG current change (%, negative = inhibition) at 10uM": -32.7}
{"compound": "Cc1ncc(CO)c(CNc2ccc(Oc3ccccc3)cc2)c1O", "hERG current change (%, negative = inhibition) at 10uM": -13.7}
{"compound": "CCOC(=O)c1ccc(NC(=O)CSc2nnc(COc3ccccc3OC)n2CC)cc1", "hERG current change (%, negative = inhibition) at 10uM": -1.5}
{"compound": "CS(=O)(=O)N(CC(N)=O)c1cccc(Br)c1", "hERG current change (%, negative = inhibition) at 10uM": 9.26}
{"compound": "COc1ccc(N(CC(=O)NCCSc2ccccn2)S(=O)(=O)c2ccccc2)cc1Cl", "hERG current change (%, negative = inhibition) at 10uM": -19.6}
{"compound": "CCCOc1ccc(CNC(=S)Nc2ccccc2)cc1Cl", "hERG current change (%, negative = inhibition) at 10uM": 16.5}
{"compound": "Cc1cccn2c(=O)nc(SCC(=O)N3CC(C)OC(C)C3)nc12", "note": "(stereo not drawn)", "hERG current change (%, negative = inhibition) at 10uM": 1.96}
